From the supplement of paper PMC8728848
Some of the results follow.

What was measured:
Assay in all cases: glycan array binding signal (z-score within array); higher = stronger binding
Settings in all cases: glycan notation: IUPAC condensed, linker removed
[1] = biological target: Neu5Ac(a2-3)Gal(b1-4)[Fuc(a1-3)]GlcNAc
In short: (§1)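 Arrays were curated from the Consortium for Functional Glycomics database, 3228 in total, and kept only where the protein sequence was available. Binding is expressed as a within-array Z-score. This score was averaged across arrays of the same protein sequence at different concentrations or buffers and across linkers, and negative values can be read as non-binding.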

[2] = biological target: Neu5Ac(a2-3)Gal(b1-4)[Fuc(a1-3)]GlcNAc(b1-3)Gal
In short: as §1

[3] = biological target: Neu5Ac(a2-3)Gal(b1-4)[Fuc(a1-3)]GlcNAc(b1-3)Gal(b1-4)GlcNAc
In short: as §1

[4] = biological target: Neu5Ac(a2-3)Gal(b1-4)[Fuc(a1-3)]GlcNAc(b1-3)Gal(b1-4)[Fuc(a1-3)]GlcNAc(b1-3)Gal(b1-4)[Fuc(a1-3)]GlcNAc
In short: as §1

[5] = biological target: Neu5Ac(a2-3)Gal(b1-4)[Fuc(a1-3)]GlcNAc(b1-6)[Gal(b1-3)]GalNAc
In short: as §1

[6] = biological target: Neu5Ac(a2-3)Gal(b1-4)[Fuc(a1-3)]GlcNAc6S
In short: as §1

[7] = biological target: Neu5Ac(a2-3)Gal6S(b1-4)GlcNAc
In short: as §1

[8] = biological target: Neu5Ac(a2-3)Gal6S(b1-4)[Fuc(a1-3)]GlcNAc
In short: as §1

Neu5Ac(a2-3)GalNAc = biological target: Neu5Ac(a2-3)GalNAc
In short: as §1

[9] = biological target: Neu5Ac(a2-3)GalNAc(b1-4)GlcNAc
In short: as §1

[10] = biological target: Neu5Ac(a2-3)[GalNAc(b1-4)]Gal(b1-4)Glc
In short: as §1

[11] = biological target: Neu5Ac(a2-3)[GalNAc(b1-4)]Gal(b1-4)GlcNAc
In short: as §1

[12] = biological target: Neu5Ac(a2-3)[Neu5Ac(a2-6)]GalNAc
In short: as §1

Neu5Ac(a2-6)Gal = biological target: Neu5Ac(a2-6)Gal
In short: as §1

Neu5Ac(a2-6)Gal(b1-4)Glc = biological target: Neu5Ac(a2-6)Gal(b1-4)Glc
In short: as §1

[13] = biological target: Neu5Ac(a2-6)Gal(b1-4)GlcNAc
In short: as §1

[14] = biological target: Neu5Ac(a2-6)Gal(b1-4)GlcNAc(b1-2)Man(a1-3)[Gal(b1-4)GlcNAc(b1-2)Man(a1-6)]Man(b1-4)GlcNAc(b1-4)GlcNAc
In short: as §1

[15] = biological target: Neu5Ac(a2-6)Gal(b1-4)GlcNAc(b1-2)Man(a1-3)[GlcNAc(b1-2)Man(a1-6)]Man(b1-4)GlcNAc(b1-4)GlcNAc
In short: as §1

[16] = biological target: Neu5Ac(a2-6)Gal(b1-4)GlcNAc(b1-2)Man(a1-3)[GlcNAc(b1-2)Man(b1-4)GlcNAc(b1-2)Man(a1-6)]Man(b1-4)GlcNAc(b1-4)GlcNAc
In short: as §1

[17] = biological target: Neu5Ac(a2-6)Gal(b1-4)GlcNAc(b1-2)Man(a1-3)[Neu5Ac(a2-6)Gal(b1-4)GlcNAc(b1-2)Man(a1-6)]Man(b1-4)GlcNAc(b1-4)GlcNAc
In short: as §1

[18] = biological target: Neu5Ac(a2-6)Gal(b1-4)GlcNAc(b1-2)Man(a1-6)[Gal(b1-4)GlcNAc(b1-2)Man(a1-3)]Man(b1-4)GlcNAc(b1-4)GlcNAc
In short: as §1

[19] = biological target: Neu5Ac(a2-6)Gal(b1-4)GlcNAc(b1-2)Man(a1-6)[GlcNAc(b1-2)Man(a1-3)]Man(b1-4)GlcNAc(b1-4)GlcNAc
In short: as §1

[20] = biological target: Neu5Ac(a2-6)Gal(b1-4)GlcNAc(b1-3)Gal(b1-4)GlcNAc
In short: as §1

[21] = biological target: Neu5Ac(a2-6)Gal(b1-4)GlcNAc(b1-3)Gal(b1-4)[Fuc(a1-3)]GlcNAc(b1-3)Gal(b1-4)[Fuc(a1-3)]GlcNAc
In short: as §1

[22] = biological target: Neu5Ac(a2-6)Gal(b1-4)GlcNAc6S
In short: as §1

Neu5Ac(a2-6)GalNAc = biological target: Neu5Ac(a2-6)GalNAc
In short: as §1

[23] = biological target: Neu5Ac(a2-6)GalNAc(b1-4)GlcNAc
In short: as §1

Neu5Ac(a2-8)Neu5Ac = biological target: Neu5Ac(a2-8)Neu5Ac
In short: as §1

[24] = biological target: Neu5Ac(a2-8)Neu5Ac(a2-3)Gal(b1-4)Glc
In short: as §1

[25] = biological target: Neu5Ac(a2-8)Neu5Ac(a2-3)[GalNAc(b1-4)]Gal(b1-4)Glc
In short: as §1

[26] = biological target: Neu5Ac(a2-8)Neu5Ac(a2-8)Neu5Ac
In short: as §1

[27] = biological target: Neu5Ac(a2-8)Neu5Ac(a2-8)Neu5Ac(a2-3)Gal(b1-4)Glc
In short: as §1

[28] = biological target: Neu5Ac(a2-8)Neu5Ac(a2-8)Neu5Ac(a2-3)[GalNAc(b1-4)]Gal(b1-4)Glc
In short: as §1

[29] = biological target: Neu5Ac(a2-8)Neu5Ac(a2-8)Neu5Ac(a2-8)Neu5Ac(a2-3)[GalNAc(b1-4)]Gal(b1-4)Glc
In short: as §1

[30] = biological target: Neu5Ac(b2-6)Gal(b1-4)GlcNAc
In short: as §1

Neu5Ac(b2-6)GalNAc = biological target: Neu5Ac(b2-6)GalNAc
In short: as §1

[31] = biological target: Neu5Ac9Ac(a2-6)Gal(b1-4)GlcNAc
In short: as §1

[32] = biological target: Neu5Gc(a2-3)Gal(b1-3)GlcNAc
In short: as §1

[33] = biological target: Neu5Gc(a2-3)Gal(b1-3)[Fuc(a1-4)]GlcNAc
In short: as §1

Neu5Gc(a2-3)Gal(b1-4)Glc = biological target: Neu5Gc(a2-3)Gal(b1-4)Glc
In short: as §1

[34] = biological target: Neu5Gc(a2-3)Gal(b1-4)GlcNAc
In short: as §1

[35] = biological target: Neu5Gc(a2-3)Gal(b1-4)[Fuc(a1-3)]GlcNAc
In short: as §1

[36] = biological target: Neu5Gc(a2-6)Gal(b1-4)GlcNAc
In short: as §1

Neu5Gc(a2-6)GalNAc = biological target: Neu5Gc(a2-6)GalNAc
In short: as §1

[37] = biological target: Neu5Gc(b2-6)Gal(b1-4)GlcNAc
In short: as §1

B1: Surfactant Protein D (rat); Neck + Carbohydrate Recognition Domain (NCRD) (Rattus norvegicus) (protein)
chain: MLLFLLSALVLLTQPLGYLEAEMKTYSHRTMPSACTLVMCSSVESGLPGRDGRDGREGPRGEKGDPGLPGAAGQAGMPGQAGPVGPKGDNGSVGEPGPKGDTGPSGPPGPPGVPGPAGREGALGKQGNIGPQGKPGPKGEAGPKGEVGAPGMQGSAGARGAGPKGERGVPGERGVPGNTGAAGSAGAMGPQGSPGARGPPGLKGDKGIPGDKGAKGESGLPDVASLRQQVEALQGQVQHLQAAFSQYKKVELFPNGQSVGEKIFKTAGFVKPFTEAQLLCTQAGGQLASPRSAAENAALQQLVVAKNEAAFLSMTDSKTEGKFTYPTGESLVYSNWAPGEPNDDGGSEDCVEIFTNGKWNDRACGEKRLVVCEF
Q: How did the “glycan array binding signal (z-score)” value [1] turn out when B1 was run?
A: The value was 0.004.

Q: And the “glycan array binding signal (z-score)” value [2]?
A: The value was -0.103.

Q: And the “glycan array binding signal (z-score)” value [3]?
A: Its value is -0.098.

Q: What about the “glycan array binding signal (z-score)” value [4] of the same binder?
A: Its value is -0.165.

Q: And the “glycan array binding signal (z-score)” value [5]?
A: The value was -0.091.

Q: What about the “glycan array binding signal (z-score)” value [6] of the same binder?
A: The value was -0.104.

Q: What about the “glycan array binding signal (z-score)” value [7] of the same binder?
A: The value was 0.006.

Q: And the “glycan array binding signal (z-score)” value [8]?
A: Its value is 0.061.

Q: What about the “glycan array binding signal (z-score)” value (Neu5Ac(a2-3)GalNAc) of the same binder?
A: Its value is -0.216.

Q: And the “glycan array binding signal (z-score)” value [9]?
A: The value was 0.09.

Q: What about the “glycan array binding signal (z-score)” value [10] of the same binder?
A: The value was -0.091.

Q: And the “glycan array binding signal (z-score)” value [11]?
A: The value was -0.157.

Q: And the “glycan array binding signal (z-score)” value [12]?
A: Its value is -0.236.

Q: And the “glycan array binding signal (z-score)” value (Neu5Ac(a2-6)Gal)?
A: The value was -0.229.

Q: And the “glycan array binding signal (z-score)” value (Neu5Ac(a2-6)Gal(b1-4)Glc)?
A: Its value is -0.161.

Q: What about the “glycan array binding signal (z-score)” value [13] of the same binder?
A: The value was -0.071.

Q: What about the “glycan array binding signal (z-score)” value [14] of the same binder?
A: Its value is -0.126.

Q: And the “glycan array binding signal (z-score)” value [15]?
A: The value was -0.17.

Q: What about the “glycan array binding signal (z-score)” value [16] of the same binder?
A: The value was -0.085.

Q: And the “glycan array binding signal (z-score)” value [17]?
A: The value was 0.111.

Q: What about the “glycan array binding signal (z-score)” value [18] of the same binder?
A: Its value is -0.176.

Q: And the “glycan array binding signal (z-score)” value [19]?
A: Its value is -0.097.

Q: What about the “glycan array binding signal (z-score)” value [20] of the same binder?
A: The value was -0.105.

Q: What about the “glycan array binding signal (z-score)” value [21] of the same binder?
A: Its value is -0.085.

Q: And the “glycan array binding signal (z-score)” value [22]?
A: The value was 0.308.

Q: And the “glycan array binding signal (z-score)” value (Neu5Ac(a2-6)GalNAc)?
A: The value was 0.018.

Q: And the “glycan array binding signal (z-score)” value [23]?
A: The value was -0.027.

Q: And the “glycan array binding signal (z-score)” value (Neu5Ac(a2-8)Neu5Ac)?
A: The value was -0.161.

Q: What about the “glycan array binding signal (z-score)” value [24] of the same binder?
A: The value was -0.191.

Q: What about the “glycan array binding signal (z-score)” value [25] of the same binder?
A: Its value is -0.103.

Q: What about the “glycan array binding signal (z-score)” value [26] of the same binder?
A: The value was -0.167.

Q: And the “glycan array binding signal (z-score)” value [27]?
A: The value was -0.048.

Q: And the “glycan array binding signal (z-score)” value [28]?
A: Its value is 0.016.

Q: And the “glycan array binding signal (z-score)” value [29]?
A: The value was 0.044.

Q: And the “glycan array binding signal (z-score)” value [30]?
A: Its value is -0.13.

Q: And the “glycan array binding signal (z-score)” value (Neu5Ac(b2-6)GalNAc)?
A: The value was -0.156.

Q: What about the “glycan array binding signal (z-score)” value [31] of the same binder?
A: The value was -0.179.

Q: What about the “glycan array binding signal (z-score)” value [32] of the same binder?
A: The value was -0.103.

Q: And the “glycan array binding signal (z-score)” value [33]?
A: Its value is -0.125.

Q: What about the “glycan array binding signal (z-score)” value (Neu5Gc(a2-3)Gal(b1-4)Glc) of the same binder?
A: The value was -0.156.

Q: What about the “glycan array binding signal (z-score)” value [34] of the same binder?
A: The value was -0.079.

Q: And the “glycan array binding signal (z-score)” value [35]?
A: The value was -0.088.

Q: And the “glycan array binding signal (z-score)” value [36]?
A: The value was -0.186.

Q: What about the “glycan array binding signal (z-score)” value (Neu5Gc(a2-6)GalNAc) of the same binder?
A: Its value is -0.219.

Q: What about the “glycan array binding signal (z-score)” value [37] of the same binder?
A: The value was -0.191.
